Measurements published in PubChem BioAssay AID504466 (National Center for Advancing Translational Sciences (NCATS), 2011).
Screen size: about 330,000 compounds; about 4,200 (1.3%) were called active. Inconclusive results, whose numbers are uncertain, are shown with a selection of clear calls. Calls follow the shape of the dose curve; as a rule, active = well fitted activation curve with a large enough effect; inconclusive = small, poorly fitted or top-dose-only effect; inactive = no such curve, though single readings can be large or run the other way. Potencies beside an inconclusive call are fits to weak or partial responses and may not hold up.

Test: qHTS screen for small molecules that induce genotoxicity in human embryonic kidney (HEK293T) cells expressing luciferase-tagged ELG1; also: nearly all actives have a fitted effect of over 60% in size; as to activity change, positive = activation: % of control where 0% means no effect
Conditions: HEK293T ELG1-luciferase reporter, luminescence, 16 h; series mostly up to 46 µM; activity change, positive = activation: at the top concentration
Summary of the method: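 After overnight (16 hr) compound treatment at 37 °C, ELG1-luciferase HEK293T cells were lysed with ONE-Glo; luminescence quantified 30 min later at room temperature.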
Potency is read from the fitted curve at half-maximal effect; tags tell the direction and shape of the fitted curve.

Compound	activity change, positive = activation	Potency
Cc1ccc(NC(=O)c2oc3ccc(S(=O)(=O)N4CCOCC4)cc3c2C)cc1C	inactive: 7.91%	
Cc1ccc(C(=O)NC(=S)Nc2nc(-c3cccc([N+](=O)[O-])c3)cs2)c(Cl)c1	inactive: 9.03%	
Cc1c(C(=O)NCc2cccs2)oc2ccccc12		inconclusive: 29.1 µM [activator, single point]
CCOC(=O)CSc1nc(C)c2ccccc2n1	inactive: 16.1%	
Nc1c(C(=O)Nc2cccc(F)c2)nnn1-c1cccc(C(F)(F)F)c1		inconclusive: 25.9 µM [activator, partial curve, poor fit]
O=C(Nc1cccc(F)c1)N1CC=C(c2ccc(Cl)cc2)CC1		inconclusive: 29.1 µM [activator, partial curve, poor fit]
COc1ccc(/C=N/NC(=O)CCC(=O)Nc2ccccc2)cc1OC	inactive: -0.267%	
CCCn1c(C)cc(C(=O)COc2ncnc3sccc23)c1C		inconclusive: 8.2 µM [activator, partial curve]
O=C(N/N=C/c1ccc2c(c1)OCO2)c1ccc(Br)o1		active: 10.3 µM
O=S(=O)([N-]c1nc2ccccc2nc1-n1cc[n+](Cc2ccccc2)c1)c1ccc(Br)cc1		inconclusive: 23.1 µM [activator, partial curve, poor fit]
O=C(NCc1ccco1)C(c1cccs1)N(C(=O)C1COc2ccccc2O1)c1cccc(O)c1 (centres undefined)	inactive: -11.8%	
COc1ccccc1-c1n[nH]c(=S)n1N	inactive: 0.513%	
CCSc1ncc(Cl)c(C(=O)Nc2ccccc2C)n1	inactive: 0.562%	
Cc1c(C(=O)O)cnc2cc(-c3ccc(Cl)cc3)nn12		inconclusive: 23.1 µM [activator, single point]
N#CCCN1CCN(C(=S)c2ccc(-c3cccc(Cl)c3)o2)CC1		inconclusive: 35.5 µM [activator, single point]
N#C/C(=C\c1ccc(O)cc1)c1nc2ccccc2o1		inconclusive: 7.3 µM [activator, partial curve, poor fit]
CC(Sc1ccc(Cl)cc1)C(=O)Nc1ccc2c(c1)OCO2 (centres undefined)	inactive: -0.94%	
O=C(Nc1cccc(-c2nc3ncccc3o2)c1)c1sc2cc(Cl)ccc2c1Cl		inconclusive: 20.6 µM [activator, partial curve, poor fit]
CN=c1scc(-c2ccco2)n1/N=C/c1ccc(O)c(O)c1		inconclusive: 0.651 µM [activator, single point]
C=C(C)C(=O)Oc1ccc(N2C(=O)[C@@H]3C4C=CC(C4)[C@@H]3C2=O)cc1		inconclusive: 20.6 µM [activator, partial curve, poor fit]
CC(C)(C)C(=O)Nc1ccc(NC(=O)c2ccco2)nc1		inconclusive: 0.073 µM [activator, partial curve, poor fit]
CCn1c(=O)c2cc(C(=O)Nc3cccc(C(C)=O)c3)sc2c2ccccc21		inconclusive: 23.1 µM [activator, partial curve, poor fit]
Cc1ccc(S(=O)(=O)NCC(=O)NCC(=O)OCC(=O)N2CC(=O)Nc3ccccc32)cc1C	inactive: 0.213%	
COc1ccc2c(c1)O[C@@H](c1cccc(C(F)(F)F)c1)[C@H](OC(=O)Nc1ccc(OC(F)F)cc1)C2=O	inactive: -0.116%	
CCOC(=O)c1csc(NC(=O)C2CCCCC2)n1		inconclusive: 16.4 µM [activator, partial curve, poor fit]

Compound	activity change, positive = activation	Potency
Oc1cccc(/C=N/N=C/c2cccc(O)c2O)c1O		inconclusive: 22.4 µM [activator, single point]
CN(C)CCCn1c(SCC(=O)Nc2nccs2)nnc1-c1ccncc1		inconclusive: 20.6 µM [activator, single point]
COc1cccc(OCc2cc(C(=O)N3CCN(C4CCCC4)CC3)no2)c1	inactive: 0.726%	
CC(=O)c1sc(Nc2cccc(C)c2)nc1C		inconclusive: 23.1 µM [activator, partial curve, poor fit]
COc1ccc2ccccc2c1/C=N/Nc1cccc(C(=O)O)c1		inconclusive: 9.2 µM [activator, partial curve]
O=C(NCCC1=CCCCC1)c1ccc(Cl)c(S(=O)(=O)N2CCOCC2)c1		inconclusive: 18.4 µM [activator, partial curve, poor fit]
CC(C)(C)C(=O)Nc1ccc(-c2cn3ccsc3n2)cc1		inconclusive: 0.411 µM [activator, single point]
CC(=O)c1ccc(OCc2cc(C(=O)N3CC[C@@H]4CCCC[C@H]4C3)no2)cc1		inconclusive: 8.2 µM [activator, partial curve]
COc1cccc(C(=O)NC(=O)Nc2cc(C)on2)c1		inconclusive: 2.91 µM [activator, partial curve, poor fit]
COc1ccc2c(c1OC)C(=O)N1N=C(c3ccc(O)cc3)CC21 (centres undefined)	inactive: -0.166%	
COc1ccc2c(c1OC)C(=O)N1c3ccccc3SC21 (centres undefined)		inconclusive: 5.8 µM [activator, partial curve]
CN(Cc1ccccc1Br)C(=O)CSc1nnnn1C1CC1	inactive: -1.13%	
C/C(=N/NC(=O)c1cccs1)c1cccc(N)c1		inconclusive: 20.6 µM [activator, single point]
CCOc1ccc(NC(=O)CCC(=O)N/N=C/c2ccc3c(c2)OCO3)cc1		inconclusive: 29.1 µM [activator, single point]
COc1ccccc1C(=O)Nc1ccc2c(c1)OCO2		active: 14.6 µM
O=[N+]([O-])c1ccccc1/C=C/C=N/N1CCCCC1		active: 4.61 µM
O=C(c1cc(-c2ccc(F)cc2)on1)N1CCCC1		inconclusive: 2.59 µM [activator, full curve, poor fit]
CCOc1ccc(-c2cc(C(=O)NCCCN3CCCC3)c3ccccc3n2)cc1	inactive: 13.1%	
Cc1csc(NC(=O)c2ccc(N3CCCC3=O)cc2)n1		active: 0.651 µM
COc1ccc([N+](=O)[O-])cc1/C=N/Nc1nc(N2CCCCC2)nc(N2CCCCC2)n1	inactive: -10.9%	
Cc1cc(C(=O)COC(=O)C2=COCCO2)c(C)n1-c1cccc(F)c1		inconclusive: 0.92 µM [activator, full curve, poor fit]
O=C(/C=C/c1ccc2c(c1)OCO2)c1cccnc1	inactive: 0.743%	
Cc1ccc(C2CN=NC23CCc2ccccc2C3=O)cc1 (centres undefined)		inconclusive: 18.4 µM [activator, single point]
CCOC(=O)CSc1nc2cc(C)ccc2cc1C#N		inconclusive: 2.59 µM [activator, full curve]
CCCCc1nnc(NC(=O)CSCc2cc(=O)n3cc(C)sc3n2)s1	inactive: -0.181%	

Compound	activity change, positive = activation	Potency
CCOC(=O)c1sc(NC(=O)C(C)(C)C)cc1C		active: 18.4 µM
O=[N+]([O-])c1ccc(/C=C2\CCC(C3=CCCC3)=C2N2CCOCC2)cc1		inconclusive: 32.6 µM [activator, single point]
CCN(CC(=O)Nc1sc2c(c1C#N)CCCC2)Cc1nc2ccccc2c(=O)[nH]1	inactive: -5.77%	
C#CCN1C(=O)S/C(=C/C=C/c2ccc(N(C)C)cc2)C1=O		active: 9.2 µM
CCc1cccc(CC)c1NC(=O)CSc1nnc(C2CC2)n1C	inactive: -3%	
O=C(/C=C/Sc1ccccc1)c1ccc(Cl)cc1		inconclusive: 18.4 µM [activator, single point]
CC(=O)N(/N=C1\Sc2ccccc2C1=O)c1ccc(C)cc1C		active: 14.6 µM
O=C(Nc1nnc(Cc2ccc(F)cc2)s1)Nc1ccccc1F		inconclusive: 20.6 µM [activator, partial curve, poor fit]
O=C(N/N=C/C(Cl)=C/c1ccccc1)c1ccc2c(c1)OCO2	inactive: 11%	
COc1cc(/C=N/N=C2/NC(=O)C(CC(=O)O)S2)ccc1OCc1ccc(Cl)cc1 (centres undefined)		inconclusive: 20.6 µM [activator, single point]
Cc1nc2cc(-c3ccccc3)[nH]n2c(=O)c1C		active: 20.6 µM
Cn1c(SCC(=O)Nc2ccc(C(N)=O)cc2)nc2c(c1=O)SCC2		inconclusive: 20.6 µM [activator, partial curve, poor fit]
CC(=O)c1cccc2c(O)c(C3=Nc4ccccc4C3=O)[nH]c12		inconclusive: 1.64 µM [activator, partial curve]
Brc1ccc(-c2noc(-c3ccccc3)n2)o1		inconclusive: 2.59 µM [activator, full curve, poor fit]
CCc1ccc(/C=N/NC(=O)Cc2cccn2C)cc1	inactive: 15.1%	
CCCCn1c(SCc2c(C)noc2C)nc2cc(S(N)(=O)=O)ccc21		active: 18.4 µM
CC(=O)Nc1ccc(NC(=O)c2ccc(CN3CCc4ccccc4C3)cc2)cc1		inconclusive: 29.1 µM [activator, partial curve, poor fit]
O=C(O)CCC(=O)Nc1cccc(C(=O)Nc2ccc(Br)cc2)c1	inactive: 5.16%	
Cc1ccc(C(=O)CSc2ccccn2)cc1		inconclusive: 10.3 µM [activator, partial curve]
CCc1ccc(C2CC(c3ccco3)=NN2S(C)(=O)=O)cc1 (centres undefined)		inconclusive: 0.731 µM [activator, full curve]
O=C(Nc1ncccc1Cl)c1ccccc1F	inactive: 6.18%	
CCOc1ccc(NS(=O)(=O)c2ccc3[nH]cc(C(=O)NCCOC)c(=O)c3c2)cc1		inconclusive: 9.2 µM [activator, partial curve]
CN(C)c1ccc(N/C=C/C(=O)c2ccco2)cc1		inconclusive: 0.651 µM [activator, partial curve, poor fit]
CCCN1CCC(=O)N([C@H](CSc2ccccc2)CC(C)C)CC1		inconclusive: 10.3 µM [activator, partial curve]
